This note sets out measurements from PMC4336329 (PLoS ONE, 2015).

The whole screen tested about 310,000 compounds, of which about 14,000 (4.5%) showed an effect of 50% or more. The effect is printed as a negative number. The list shows a part of the results.
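Further: peak tail current of the secondary pulse compared with the same well before compound.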

human ether-à-go-go-related gene (hERG) potassium channel, sequence (Q12809 whole entry, looked up): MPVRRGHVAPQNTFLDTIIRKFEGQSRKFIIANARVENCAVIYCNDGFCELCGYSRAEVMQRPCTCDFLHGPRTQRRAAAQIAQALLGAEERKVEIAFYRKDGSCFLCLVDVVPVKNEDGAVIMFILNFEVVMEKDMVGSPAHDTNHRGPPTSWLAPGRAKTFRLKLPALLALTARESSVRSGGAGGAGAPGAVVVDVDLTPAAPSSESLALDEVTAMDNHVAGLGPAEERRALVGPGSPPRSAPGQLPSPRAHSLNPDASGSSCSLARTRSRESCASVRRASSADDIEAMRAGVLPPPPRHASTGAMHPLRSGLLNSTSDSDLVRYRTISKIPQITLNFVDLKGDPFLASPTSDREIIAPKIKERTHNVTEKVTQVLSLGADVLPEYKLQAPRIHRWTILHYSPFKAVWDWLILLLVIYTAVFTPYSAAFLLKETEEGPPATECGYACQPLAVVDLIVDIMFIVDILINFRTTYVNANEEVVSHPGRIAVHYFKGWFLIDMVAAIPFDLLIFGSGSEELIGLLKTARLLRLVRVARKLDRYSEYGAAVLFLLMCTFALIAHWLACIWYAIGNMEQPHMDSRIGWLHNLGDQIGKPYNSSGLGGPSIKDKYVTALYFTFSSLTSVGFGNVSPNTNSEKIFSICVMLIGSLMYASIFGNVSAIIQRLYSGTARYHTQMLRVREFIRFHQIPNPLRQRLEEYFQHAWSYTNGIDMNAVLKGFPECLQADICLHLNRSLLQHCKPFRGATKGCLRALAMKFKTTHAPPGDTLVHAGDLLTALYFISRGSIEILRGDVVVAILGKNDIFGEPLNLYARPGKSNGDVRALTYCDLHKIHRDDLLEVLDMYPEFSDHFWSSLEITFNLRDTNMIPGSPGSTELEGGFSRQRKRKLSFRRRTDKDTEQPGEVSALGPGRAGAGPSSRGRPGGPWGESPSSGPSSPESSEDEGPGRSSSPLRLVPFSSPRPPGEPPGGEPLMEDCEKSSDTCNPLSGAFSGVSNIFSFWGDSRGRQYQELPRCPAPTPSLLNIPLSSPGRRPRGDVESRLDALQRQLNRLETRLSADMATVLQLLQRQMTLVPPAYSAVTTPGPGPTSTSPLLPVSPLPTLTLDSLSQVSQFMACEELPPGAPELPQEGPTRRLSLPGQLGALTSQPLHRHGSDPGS

The assay addresses human ether-à-go-go-related gene (hERG) potassium channel (human, UniProt Q12809). As to the kind of experiment: primary screen, population patch clamp on CHO cells stably expressing hERG.
Regarding `Cc1ccc(OP(=O)(Nc2c(C)n(C)n(-c3ccccc3)c2=O)Oc2ccc(C)cc2)cc1`, the “hERG current change (%, negative = inhibition) at 10uM” value is -7.98%.
To `Cc1nn(CC(=O)Nc2ccc(Cl)cn2)c(C)c1[N+](=O)[O-]` belongs -7.96%; to `Cc1cc(C)nc(N2N=C(C(C)(C)C)CC2=O)n1`, 11.9%.
Next, `CC1S/C(=N/N=C2CCC(C(C)(C)C)CC2)NC1=O` (stereo not drawn): 8.05%; `Cc1nc2c3cc(Cl)ccc3n(CCN3CCCCC3)c2s1.Cl`: -70%; `Cc1ccc(Cl)cc1NC(=O)C(Cc1ccccc1)N1C(=O)C2C3CCC(C3)C2C1=O` (stereo not drawn): -13.4%.
With `Cn1c(SCc2c(Cl)cccc2Cl)nc(C(F)(F)F)cc1=O`, the “hERG current change (%, negative = inhibition) at 10uM” value is given as -7.12%.
Next, `CCCc1cc(C(=O)Nc2sc3c(c2C(=O)OCC)CCCC3)no1`: 6.07%; `Cc1occc1C(=O)NC(C)C1CCCO1` (stereo not drawn): 1.07%; `CCOC(=O)c1ccccc1NC(=O)C1CCN(c2ncnc3sc(C)c(C)c23)CC1`: -11.4%.
Next, `COc1ccc(C(=O)NCC(=O)NCC(=O)OCC(=O)C(C)(C)C)cc1`: 10%; `Cc1cccc(-c2noc(CCCC(=O)N3CCOCC3)n2)c1`: 5.26%; `O=C(Nc1cccnc1)C1CCCN(S(=O)(=O)c2ccccc2)C1` (stereo not drawn): -7.62%.
Next, `COc1ccc([C@H]2[C@H](C(=O)OC(C)(C)C)N3N=Cc4ccccc4C3C23C(=O)c2ccccc2C3=O)c(OC)c1` (stereo partly drawn): -7.11%; `Cc1cc(CC(C)C)n(-c2nc3ccccc3c(=O)n2OCC(=O)N(C)C)n1`: -3.47%.
As to `O=C(c1ccc(Br)cc1)N(Cc1nc2ccccc2c(=O)[nH]1)C1CCCC1`, the “hERG current change (%, negative = inhibition) at 10uM” value is reported as -13.4%.
Next, `O=C(NCc1ccccc1)C1CCCN1S(=O)(=O)c1ccc(F)cc1` (stereo not drawn): 20.6%; `Cc1ccc2cn[nH]c2c1[N+](=O)[O-]`: -4.52%.
Take `O=C(OCCc1cc2ccccc2c(=O)o1)N1CCOCC1`: the “hERG current change (%, negative = inhibition) at 10uM” value is 13.5%.
Consider `COc1ccccc1/C=C/C(=O)OCCN1CCOCC1.Cl`, for which the “hERG current change (%, negative = inhibition) at 10uM” value was 2.69%.
As to `O=C(Nc1ccccc1)C1=C[C@@H](c2ccccc2)C[C@@H](OCc2ccc(CO)cc2)O1`, the “hERG current change (%, negative = inhibition) at 10uM” value is given as 2.2%.
Next, `COC(=O)Cc1c(O)ccn(Cc2cccc(C(F)(F)F)c2)c1=O`: 14.1%.
Next, `Cc1ccccc1NC(=S)NC(NC(=O)c1ccco1)C(Cl)(Cl)Cl` (stereo not drawn): -5.77%; `Oc1ccccc1-c1nc(NCc2cccnc2)c2ccccc2n1`: 9.87%.
To `O=C(NC(Cc1ccccc1)C(=O)O)/C(=C/c1ccc([N+](=O)[O-])cc1)NC(=O)c1ccco1` (stereo not drawn) belongs 12.6%; to `O=C(NCc1ccc(Cl)cc1)NCC(F)(F)F`, 7%.
Turning to `Nc1nc2nn(-c3ccccc3)nc2c(=O)[nH]1`, the “hERG current change (%, negative = inhibition) at 10uM” value was 12.5%.
Take `CC(Nc1nc(-c2ccc(F)cc2)cs1)c1nc2cc(C(F)(F)F)ccc2n1CCOCCO` (stereo not drawn): the “hERG current change (%, negative = inhibition) at 10uM” value is reported as -18.1%.
Take `O=C(CN1C(=O)S/C(=C\c2ccccc2)C1=O)NC1CCS(=O)(=O)C1` (stereo not drawn): the “hERG current change (%, negative = inhibition) at 10uM” value was determined as 3.59%.
To `c1ccc(CC2CCCCN2)cc1` (stereo not drawn) belongs 12.5%; to `Brc1ccc(-c2csc(N3CCCCCC3)n2)cc1`, 17.1%; to `C=CCn1c(O)c(C(CC)=NCc2ccco2)c(=O)[nH]c1=O`, -27.6%.
To `CC(C)(CNc1ccc(C(F)(F)F)cc1[N+](=O)[O-])N1CCOCC1` belongs 11.8%; to `COc1ccc(C(=O)OCC(=O)Nc2ccc(F)c(F)c2F)cc1OC`, -11.6%; to `CC(C)(C)NC(=O)CN(Cc1cccs1)C(=O)CN1C(=O)C(=O)c2ccccc21`, -5.03%.
As to `Cc1ncc(N=Nc2ccccc2Cl)c(-c2ccccc2)n1`, the “hERG current change (%, negative = inhibition) at 10uM” value was found to be 2%.
To `COc1ccc(OC)c(C(=O)c2ccc(C(=O)Nc3ccc4ccccc4c3)cc2)c1` belongs 8.94%.
To `COCc1nnc(NC(=O)c2cc(OC)c(OC)cc2[N+](=O)[O-])s1` belongs 1.59%; to `Cc1ccc(NC(=O)CSc2nnc(C3CC3)n2C)cc1S(=O)(=O)N1CCCCC1`, -16.6%.
With `CCCN(CC(=O)Nc1cc(Cl)ccc1Cl)C(=O)/C=C/c1ccco1`, the “hERG current change (%, negative = inhibition) at 10uM” value is given as -35.5%.
To `Cc1cccc(C(=O)N2CCN(S(=O)(=O)N3CCCCCC3)CC2)c1` belongs -21.6%.
Next, `COc1ccc(OCC(O)CNc2ccc(Br)cc2)cc1` (stereo not drawn): 9.56%; `Cn1cc(/C=C2\SC(=S)N(N3CCOCC3)C2=O)c2ccccc21`: 21.4%.
To `O=C(Nc1ccc2c(c1)OCO2)C1CCCN1C(=O)Nc1cccc(F)c1` (stereo not drawn) belongs -40.4%; to `COc1ccc(OC)c(C2C(C(=O)Nc3nc4ccccc4s3)=C(C)NC3=C2C(=O)CCC3)c1` (stereo not drawn), 12.8%.
For `S=C(NCCc1ccccc1)NCC1CCCO1` (stereo not drawn), the “hERG current change (%, negative = inhibition) at 10uM” value is listed as 7.28%.
In the case of `Cc1ccc(NC(=O)CSc2nnc(CCNC(=O)OC(C)(C)C)o2)c(C)c1`, the “hERG current change (%, negative = inhibition) at 10uM” value was -19.3%.
Next, `CCOc1cc(N2CCOCC2)c(OCC)cc1NC(=O)CCC1CCCC1`: -30.2%; `Cc1cc2c(c(=O)n1CC1CCCO1)C(c1ccco1)C(C#N)=C(N)O2` (stereo not drawn): 3.35%; `O=C1NC(=S)S/C1=C\c1cc2ccccc2nc1N1CCCCC1`: 4.78%.
On to `Cn1cccc1C(=O)Nc1nccs1`, for which the “hERG current change (%, negative = inhibition) at 10uM” value was found to be 7.96%.
To `Cc1cccc(NC(=O)c2cc(S(=O)(=O)NCc3ccco3)ccc2F)c1C` belongs 4.11%; to `CCN(CC)C1=C(Cl)C(=O)C(Cl)C12OCCO2` (stereo not drawn), 5.63%.
Next, `CN(CC(=O)Nc1c(Cl)cccc1Cl)C(=O)CCCN1C(=O)c2ccccc2C1=O`: -9.14%; `CCCCCCC(=O)Nc1ccc(C(=O)N2CCCC2)cc1`: 0.864%.
Next, `COc1ccc(-c2cn[nH]c2-c2ccc(OCc3ccc([N+](=O)[O-])cc3)cc2O)cc1`: -9.1%.
In the case of `CCOC(=O)N1CCN(S(=O)(=O)c2cc(Cl)c(OC)cc2Cl)CC1`, the “hERG current change (%, negative = inhibition) at 10uM” value was 4.96%.
